Data: PMC12136788
Substitutions are numbered along the chain they refer to. Some of the results follow.

B1: chr14:100882551:100882663:-|CDS|ENSG00000254656|unk|total|mutant (ssRNA)
RNA: GGGAGUUCUACAGUCCGACGAUCGCUCUCCCCAGACCCUAUCAUACCUCAGAACGUGAUUCACUUCAUCCUAAAGGACAUGCCCGGGUUCUUUGUGCUUUCUUAUGGCCAGGAAGUCCUGAUCUACUCAAUGAGUCAGGAGGACAACAGAGGAUUGAGCAUCA
B2: chr3:149738563:149738664:-|3pUTR|ENSG00000114744|unk|FALSE|unique (ssRNA)
RNA: GGGAGUUCUACAGUCCGACGAUCUGGAUUAUUAUGGGUCCUUGAUAAAUUCUCAAAGCCUUUUUUUUUGUUCAUCUCUAAAAUAGGAAUAUAGGAUUACCUACCACAUUGACUCGUAAGGACUAUAUGAGACCAUGUAUAUAGCAACAGAGGAUUGAGCAUCA
B3: chr17:66805439:66805473:+|3pUTR|ENSG00000154229|msi1_unk|total|mutant (ssRNA)
RNA: GGGAGUUCUACAGUCCGACGAUCCACAAUUGUGCUCUAUUUGUGCAGGUUCUUGUUUCUAAUCCUCUUUUCUAAUUAAGUUUCCGCUGAAUCCCUUGCUUCUGUGCUUUCCCUCCCUGCACAUGGGCACUGUAUCAGACCGAUCAACAGAGGAUUGAGCAUCA
B4: ENSG00000127914:stop:overlap|stop_codon|ENSG00000127914|stop_codon|NA|stop_codon (ssRNA)
RNA: GGGAGUUCUACAGUCCGACGAUCGGCAGCACCACAGUGCGAGACCCACAGCUCCCCUUUCUUUGAAAUUCUUUCACACUCAUUAGGAUAAUCAAAGCUUCCAGUUUAGUGCAUGAGCUAAUUAUUAAGUUAGCCAAAGCUUAACAACAGAGGAUUGAGCAUCA
B5: chr16:30026608:30026843:-|CDS|ENSG00000149926|control|control|control (ssRNA)
RNA: GGGAGUUCUACAGUCCGACGAUCGGUCAAAGGGCAUGGAGGGGACGACGGAGCGGCCAGAGCCCCGGGCAGCACGUGGGCCAUAGCGCGUGGCUACCUGCACAAGGAGUUCCUCAUGGUGCUCCACCAUGCCGCCAUGGUGCUCAACAGAGGAUUGAGCAUCA
B6: chr14:75059847:75060235:-|three_prime_utr|ENSG00000119640|control|control|control (ssRNA)
RNA: GGGAGUUCUACAGUCCGACGAUCAACCACAUUAAAAAAAUAAAAAGGAUAACUGGAAAAUCCCAAAAUAUUUGGAAACCAUAUAGCACACUUACUUCUAAAAUUGUGGUAGAAUACAUAUAACAUAGAAAUUAUUGUUCUAACCAACAGAGGAUUGAGCAUCA
B7: chr1:27823432:27823533:+|3pUTR|ENSG00000117758|unk|total|mutant (ssRNA)
RNA: GGGAGUUCUACAGUCCGACGAUCUUUCAAUAAAAUUACUGUCUUGUAAUAUAAAUGUUGUCCACUUCCCUUUUCCACAGGCCCCGAACAGUUAAAGGGAACAUAAUUUGUUCCGGCUCCCACAUAAAUGUGAAUCUGGCCAACCAACAGAGGAUUGAGCAUCA
B8: chr7:56101660:56101848:-|3pUTR|ENSG00000106153|msi1|FALSE|unique (ssRNA)
RNA: GGGAGUUCUACAGUCCGACGAUCUGGAGAGAUGGAAAAUCAGCUCUCAUAACUAAGUUAAUUUAGUAUAAAAAUAGAAUUGAUAGUGAGGGUAUAAAGUGUAACCAUCAGUUAAACCUCUCCUGUCAUUCCUGGCUUCCUUGCCAACAGAGGAUUGAGCAUCA
B9: chr8:86558718:86558819:+|3pUTR|ENSG00000085719|unk|FALSE|unique (ssRNA)
RNA: GGGAGUUCUACAGUCCGACGAUCCUGUUGUUGUUUUUGUUUACUUUCAUAUGAUGAAAAUGCUGUGUUUAAGUGUUUGUCAAUAGGAAGAAUGGAAAACUGUUGGGAUGAUGUGGUUUGCAGGUUGCUGUGCCUGAUUCACAGCAACAGAGGAUUGAGCAUCA
B10: chr11:74254050:74254151:+|3pUTR|ENSG00000214517|unk|total|mutant (ssRNA)
RNA: GGGAGUUCUACAGUCCGACGAUCUUGGAAGACCCAGAGAGGCCAAGAUCCCAUCCUCCGCCACCGCGAGCGGUGGUGGUGGACCGCAUCACAAGAAACGAGCCUGAAAAUCAGGUCCAGCCGGUCCAAGCACAUGGCCUCCCACAACAGAGGAUUGAGCAUCA
B11: chr7:56101660:56101848:-|3pUTR|ENSG00000106153|msi1|total|mutant (ssRNA)
RNA: B8 RNA with U63C, A64C, U74C, A75C, U83C, A84C
B12: chr10:59791032:59791133:-|3pUTR|ENSG00000108091|msi1|FALSE|unique (ssRNA)
RNA: GGGAGUUCUACAGUCCGACGAUCUAAUCAUAAUACAGUUCUCAGAUGCAGGGAAGAAGUUUGGCAUUUAAUCAUUGAGGCUUUAGGUUUUUGAUGUGAUCAGACUGGGCCAUGUCAAACCCGGAAUUUUCACCAACAGUUCACCAACAGAGGAUUGAGCAUCA
B13: chr5:149847740:149847841:+|3pUTR|ENSG00000155846|unk|total|mutant (ssRNA)
RNA: GGGAGUUCUACAGUCCGACGAUCAUUGAACAAAGCUGCUUCUGUCUGUGAGUUUCCAUGGUGUUGACGUUCCACUGCCACAUCCGUGUCCUCGCUUCCAACGGGUUGUCCCGGGUGCACCUCGAAGUGCCGGGUCCGUCACCCCAACAGAGGAUUGAGCAUCA
B14: chr16:16142165:16142266:+|3pUTR|ENSG00000103222|msi1|FALSE|unique (ssRNA)
RNA: GGGAGUUCUACAGUCCGACGAUCAUUGAUGUGGGGUAAAUAUUAAGGAGAUGGCCUCAUGGGAAUUUGACCUUGACUAGAAAUAGAGACUGAGAGUGAGCAACCAGCUGGAAGGUACUAUGCCAGUCCUAGCAGAAAAAUGUGCAACAGAGGAUUGAGCAUCA
B15: chr15:40903593:40903694:+|3pUTR|ENSG00000104142|msi1|FALSE|unique (ssRNA)
RNA: GGGAGUUCUACAGUCCGACGAUCCAGUAGAGGCCCUUCACCUGGAGAAGUCAGAAAUCUGACCCAAUUCCACCCCCUGCCUCUAGCACCUCUUCUGUCCCUGUCAUUCCCCACACACGUCCUGUUCACCUCGAGAGAGAGAGACAACAGAGGAUUGAGCAUCA
B16: chr10:126015758:126015859:-|3pUTR|ENSG00000148848|msi1|FALSE|unique (ssRNA)
RNA: GGGAGUUCUACAGUCCGACGAUCAAAUACUCAGAUAAGGUAAAAUGCCAUGAUGCCUCUGUCUUCUGGACUGGUUUUCACAUUAGAAGACAAUUGACAACAGUUACAUAAUUCACUCUGAGUGUUUUAUGAGAAAGCCUUCUUCAACAGAGGAUUGAGCAUCA
B17: chr2:128193554:128193655:+|3pUTR|ENSG00000136731|msi1|total|mutant (ssRNA)
RNA: GGGAGUUCUACAGUCCGACGAUCCCUUGUCAAGGCUCUGCCUGAAUGAGUUUUCAUCUGAUUGUGGGGACCAAGUCCCUGAGCCGAGGGCCAAGAGCCCGGGACAGGGGGAAGAGACUGGCCCAGGUGGCCGGGAGGAAAGAACAACAGAGGAUUGAGCAUCA
B18: chr7:139716074:139716127:-|CDS|ENSG00000064393|msi1_unk|FALSE|overlapping (ssRNA)
RNA: GGGAGUUCUACAGUCCGACGAUCGAAGCAAAACAAGUUUAGCCCCUUGCCCCUCAAAUACAUUCGCCCAGUUCUCCAGCAGGUAGCCACAGCCCUGAUGAAACUCAAAAGCCUAGGUCUUAUCCACGCUGACCUCAAACCAGACAACAGAGGAUUGAGCAUCA
B19: chr11:73394502:73394603:+|CDS|ENSG00000054967|msi1|FALSE|unique (ssRNA)
RNA: GGGAGUUCUACAGUCCGACGAUCCACCAUCUCCACACCGUGCAGGGCCUGGCCUCGCUCUCUGGCCCCUGCUGCUCCCGCUGUAGCCAGAAGAAGUGGCCCGAGGUGCUGCUGUCCCCUGAGGCUGUAGCCGCCACUACUCCUCAACAGAGGAUUGAGCAUCA
B20: chr17:69546800:69546959:+|3pUTR|ENSG00000108984|unk|FALSE|unique (ssRNA)
RNA: GGGAGUUCUACAGUCCGACGAUCUCAACUUCAUAGGACUUUUUUUUUUUUUAACUUUUCAAAUGGAAGGUGCAGUUUUCAAUUAGGCCUCUGAAAAUUUACAUAGUCAGAUGGAAAAAUGCCAGAGUAAAAUCUAGGAAGAAGCAACAGAGGAUUGAGCAUCA
B21: ENSG00000117868:stop:overlap|stop_codon|ENSG00000117868|stop_codon|NA|stop_codon (ssRNA)
RNA: GGGAGUUCUACAGUCCGACGAUCAAGGCUGGACCCAGUGGUAUGACCUCACGGAAGAUGGGACGAGGCCUCAGGCGAUGACAUAGCCGCAGCAGGCAGGAGGCGUCCUCUUCAGCGUAGCUCUCCACCUCUACCCGGAACACACAACAGAGGAUUGAGCAUCA
B22: ENSG00000070961:be:win_3451|CDS|ENSG00000070961|bound_else_gene|NA|bound_elsewhere_windowed (ssRNA)
RNA: GGGAGUUCUACAGUCCGACGAUCAGGAUAGAAGAUUCAGAGCCUCAUAUCCCCCUUAUUGAUGACACUGAUGCCGAAGAUGAUGCUCCUACAAAACGUAACUCCAGUCCUCCACCCUCUCCCAACAAAAAUAACAAUGCUGUUCAACAGAGGAUUGAGCAUCA

What follows are binders tested against MSI1 full-length (mouse, UniProt Q61474 1-362) (assay: nsRBNS (natural sequence RNA bind-n-seq); RBNS binding buffer (assumed for nsRBNS): 25 mM Tris pH 7.5, 150 mM KCl, 3 mM MgCl2, 0.01% Triton X-100, 500 ug/ml BSA, 20 U/ml SUPERase-In, 4 C; UNK is unkempt and MSI1 is Musashi-1; names of the RNAs are library labels; protein concentration not given here; high values mean tight binding).
Chain of UniProt Q61474 (Q61474 whole entry): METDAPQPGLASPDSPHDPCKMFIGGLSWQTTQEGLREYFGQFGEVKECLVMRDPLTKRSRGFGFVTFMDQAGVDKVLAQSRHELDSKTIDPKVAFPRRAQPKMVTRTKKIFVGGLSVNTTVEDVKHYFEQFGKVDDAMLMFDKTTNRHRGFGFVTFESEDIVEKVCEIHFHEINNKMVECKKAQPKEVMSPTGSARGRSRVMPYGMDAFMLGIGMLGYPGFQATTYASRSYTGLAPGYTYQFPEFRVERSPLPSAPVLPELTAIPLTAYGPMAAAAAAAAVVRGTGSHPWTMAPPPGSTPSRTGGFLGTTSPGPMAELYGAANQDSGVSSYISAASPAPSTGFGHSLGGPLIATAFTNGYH

Binder | binding signal [enrichment R]
B1 | 0.418
B2 | 0.662
B3 | 0.976
B4 | 0.53
B5 | 0.5
B6 | 5.32
B7 | 0.336
B8 | 5.86
B9 | 0.252
B10 | 0.249
B11 | 0.218
B12 | 0.504
B13 | 0.513
B14 | 1.02
B15 | 0.581
B16 | 0.241
B17 | 0.364
B18 | 1.02
B19 | 0.658
B20 | 1.82
B21 | 0.361
B22 | 0.757
